Reference: PubChem BioAssay AID651820 (National Center for Advancing Translational Sciences (NCATS), 2012)
“And” between values parts separate entries of the source, which are not always exact repeats. Equal entries are not always repeated. Screen size: about 340,000 compounds; about 12,000 (3.5%) were called active. This list was built around the results that the source calls inconclusive (neither active nor inactive); the mix of calls is not that of the screen. Calls come from the whole dose curve; as a rule, active = well fitted inhibition curve with a large enough effect; inconclusive = small, poorly fitted or top-dose-only effect, or another doubt; inactive = no such curve, though single readings can be large or run the other way. Potencies beside an inconclusive call are fits to weak or partial responses and may not hold up.

Test: qHTS Assay for Inhibitors of Hepatitis C Virus (HCV)
Settings: Huh7.5.1 HCVcc-Cre (HCVcc is cell-culture hepatitis C virus) infection, luciferase reporter, 44 h; activity change, negative = inhibition: at 41.8 µM (top of the series) unless noted
Description: Hepatitis C virus (HCV) infects about 200 million people in the world. Many infected people progress to chronic liver disease including cirrhosis with a risk of developing liver cancer. To date, there is no effective vaccine for hepatitis C. Current therapy based on interferon is only effective in about half of the patients and is associated with significant adverse effects. The fraction of people with HCV who can complete a successful treatment is estimated to be no more than 10 percent. Recent development of direct-acting antivirals against HCV, such as protease and polymerase inhibitors, is promising but still requires combination with peginterferon and ribavirin for maximal efficacy. In addition, these agents are associated with high rate of resistance and many have significant side effects. Due to the lack of a culture system for infectious HCV, the search for new HCV drugs has been greatly hampered. […] High-throughput screening (HTS) with an infectious HCV system would cover the complete spectrum of potentially druggable targets in all stages of HCV lifecycle, and would have more biological relevance than other cell-based assays. Moreover, targeting several key processes in the viral life cycle may not only increase antiviral efficacy; more importantly, it may also reduce the capacity of the virus to develop resistance to the compound. The goal of this project is to identify novel HCV inhibitors as new therapies for hepatitis C, using a highly sensitive and specific assay platform which is based on a HCV infectious cell culture system established in the laboratory and adapted for high-throughput HCV drug screen. NIH Chemical Genomics Center [NCGC] NIH Molecular Libraries Probe Centers Network [MLPCN] MLPCN Grant: MH095511 Assay Submitter (PI): Jake Liang, NIDDK
The assay will start with plating 1,000 cells/well in 3 µL volume and culture for 4 h. Then 23 nL of compounds from the library collection will be added to each well, followed by adding 2.5 µL of HCVcc-Cre virus (~ 0.5 moi) and further cultured for 44 h before the luciferase assay. A volume of 4.5 µL luciferase substrates will be added to each well and the plates will be incubated at room temperature for 15 min. and then read for 15 sec. for the luciferase activity
% is set by controls: 0 for no effect and ±100 for the full control effect; tags give direction and shape of the fitted curve.

SMILES | Potency | activity change, negative = inhibition
Cc1c(C#N)c(NC(=O)CCl)n(Cc2ccccc2)c1C | inconclusive: 14.1 µM [inhibitor, single point] | –
Cc1ccc(Sc2ccc(NC(=O)CCl)cc2)cc1C | inconclusive: 31.6 µM [inhibitor, single point] | –
Cn1c(SCC(=O)Nc2cc(Cl)cc(Cl)c2)nnc1-c1ccc2nonc2c1 | – | inactive: -28.5%
COc1ccc(C(=O)NCC(=O)N/N=C/c2ccc([N+](=O)[O-])o2)cc1OC | inconclusive: 12.6 µM [inhibitor, single point] | –
CC(OC(=O)c1ccccc1NS(=O)(=O)c1cccc(N)c1)C(=O)N(C)Cc1ccccc1 (stereo unspecified) | inconclusive: 31.6 µM [inhibitor, single point] | –
CCN1CCN(c2nc(Nc3ccccc3F)nc(N)c2[N+](=O)[O-])CC1 | – | inactive: 6.03%
COc1ccc(C(=O)OCC(=O)c2cc(OC)ccc2OC)c(OC)c1 | inconclusive: 8.91 µM [inhibitor, partial curve] | –
Cc1nn(-c2ccc(Cl)cn2)c2c1C(=O)CC(C)(C)C2Br (stereo unspecified) | inconclusive: 11.2 µM [inhibitor, partial curve] | –
CCN(c1ccccc1)S(=O)(=O)c1cccc(C(=O)NCCOc2ccccc2OC)c1 | inconclusive: 28.2 µM [inhibitor, partial curve] | –
COc1ccc(OCCNc2cc(N3CCCCC3)ccc2[N+](=O)[O-])cc1 | inconclusive: 10 µM [inhibitor, partial curve] | –
CC(=O)N1CCc2cc(S(=O)(=O)NCCC(=O)Nc3ccc4c(c3)OCCO4)ccc21 | – | inactive: -15.2%
CCCCCCNC(=O)CCCCCNS(=O)(=O)c1ccc(Br)cc1 | – | inactive: -13.1%
COc1ccc(-c2nc(-c3ccccc3)c(-c3cc([N+](=O)[O-])ccc3C)[nH]2)cc1O | inconclusive: 31.6 µM [inhibitor, single point] | –
CCc1ccccc1OC[C@@H](O)CN[C@H]1CCCc2ccccc21 | inconclusive: 3.16 µM [inhibitor, single point] | –
COC(=O)C1=C(c2ccc(-c3ccccc3)c(F)c2)C[C@@H]2CC[C@H]1N2C(=O)NC1CC1 | active: 10 µM | –
Cc1cc(C)nc(NC(=O)C2c3ccccc3Oc3ccccc32)n1 | inconclusive: 6.31 µM [inhibitor, full curve, poor fit] | –
CC(=O)Nc1ccc(NC(=O)c2ccc(NS(=O)(=O)c3cc(C(C)(C)C)ccc3C)cc2)cc1 | inconclusive: 3.98 µM [inhibitor, partial curve] | –
Nc1ccc2oc(-c3ccccn3)nc2c1 | – | inactive: -1.55%
Cc1c(NC(=O)c2ccc(Cl)nc2)cccc1-c1nc2cccnc2s1 | inconclusive: 15.8 µM [inhibitor, single point] | –
CC(C)(C)c1ccc(C(=O)Nn2c(CCC(=O)O)ccc2-c2cccs2)cc1 | inconclusive: 31.6 µM [inhibitor, single point] | –
CCN1CCN(c2ccc(NC(=O)c3ccc([N+](=O)[O-])o3)cc2Cl)CC1 | inconclusive: 11.2 µM [inhibitor, partial curve] | –
NNc1nc(-c2ccccc2)cc(-c2ccc(Br)cc2)n1 | inconclusive: 10 µM [inhibitor, partial curve] | –

SMILES | Potency | activity change, negative = inhibition
Cc1ccc(N2CC(=O)N(NC(=O)Nc3ccc(Cl)c(Cl)c3)CC2=O)cc1 | inconclusive: 11.2 µM [inhibitor, single point] | –
COc1ccc(OC)c(/C=N\NC(=O)c2cc3c(ccc4ccccc43)o2)c1 | inconclusive: 11.2 µM [inhibitor, partial curve] | –
CCC(CC)COC(=O)C1=C(C)NC(=O)NC1c1ccc2c(c1)OCO2 (stereo unspecified) | active: 10 µM | –
CCC(=O)Nc1cccc(NC(=S)NC(=O)c2cccc(C)c2)c1 | inconclusive: 22.4 µM [inhibitor, single point] | –
CC1CCCN(CCCNC(=O)c2cn(C)c3ccc(S(=O)(=O)N(C)C4CCCCC4)cc3c2=O)C1 (stereo unspecified) | – | inactive: 0.16%
O=C(NC1CCN(Cc2ccccc2)CC1)c1cccc(S(=O)(=O)Nc2cc(C(F)(F)F)ccc2Cl)c1 | – | inactive: 14.8%
CN(C(=O)c1ccc(NC(=O)Cc2cccc(NC(=O)C3CCCN(C(=O)CCc4ccccc4)C3)c2)cc1)C1CCCC1 (stereo unspecified) | inconclusive: 22.4 µM [inhibitor, single point] | –
Cc1ccc(CCc2nnc(SCC(=O)Nc3ccccc3Cl)n2-c2ccccc2)o1 | – | inactive: -23.6%
Cc1cc(C)c2[nH]c(C)c(CN3CCCCCC3)c(=O)c2c1 | inconclusive: 3.55 µM [inhibitor, single point] | –
CCN(C(=O)COC(=O)c1[nH]c(C)c(C(C)=O)c1C)c1c(N)n(Cc2ccccc2)c(=O)[nH]c1=O | inconclusive: 8.91 µM [inhibitor, partial curve] | –
Cc1cccc(C)c1OCC(O)Cn1nnc2ccccc21 (stereo unspecified) | inconclusive: 14.1 µM [inhibitor, single point] | –
CCOc1ccc(-n2c(SCC(=O)Nc3ccc(OC)cc3)nc3sc4c(c3c2=O)CCN(C)C4)cc1 | active: 11.2 µM | –
CC(C)(C)OC(=O)C[C@@H]1C/C=C\C[C@H](CC(=O)N(CCO)Cc2ccccc2)C(=O)N[C@@H](Cc2c[nH]c3ccccc23)COC1=O | inconclusive: 3.16 µM [inhibitor, single point] | –
O=S(=O)(c1cccc(Cl)c1)N1CN(CC2CCCO2)c2nc3ccccc3nc21 (stereo unspecified) | inconclusive: 22.4 µM [inhibitor, single point] | –
CCc1cc2cc(C)ccc2nc1SCC(=O)N1CCN(C(=O)c2ccco2)CC1 | inconclusive: 8.91 µM [inhibitor, partial curve] | –
Brc1ccc(OCc2nc3ccccc3[nH]2)cc1 | inconclusive: 31.6 µM [inhibitor, single point] | –
O=C(COc1ccc(Br)cc1)NCCCNC(=O)c1cnccn1 | – | inactive: -4.88%
Oc1ccc(C[C@H]2CNC(=S)N2CC2CCCN2C[C@H](Cc2ccccc2)N2C[C@H](Cc3ccc(O)cc3)N(CCc3ccccc3)C2=S)cc1 (stereo partly specified) | active: 2.24 µM | –
CCCn1c(SCCN2CCOCC2)nc2c1c(=O)n(C)c(=O)n2C | – | inactive: 15.7%
COCCNC(=O)C1CCCN(S(=O)(=O)c2c(C)noc2/C=C/c2cccs2)C1 (stereo unspecified) | – | inactive: -11.3%
CCOC(=O)c1c(C)[nH]c(C(=O)OCc2ccc(F)cc2)c1C | inconclusive: 2 µM [inhibitor, full curve] | –
COc1c2occc2cc2ccc(=O)oc12 | – | inactive: 7.53%

SMILES | Potency | activity change, negative = inhibition
Cc1ccc(-n2cc(-c3ccccc3)[nH]c2=O)cc1F | – | inactive: 8.56%
CCC(C)(C(=O)NC1CCCCC1)N(Cc1ccco1)C(=O)c1ccc2c(c1)OCO2 (stereo unspecified) | inconclusive: 14.1 µM [inhibitor, partial curve] and inconclusive: 1.78 µM [inhibitor, full curve] | –
C=C(C)C1CC=C(C)/C(=N/NC(=O)C2CC2c2ccccc2)C1 (stereo unspecified) | inconclusive: 11.2 µM [inhibitor, partial curve, poor fit] | –
C=C[C@@H]1c2c(F)cccc2N(S(=O)(=O)c2ccc(C)cc2)[C@H](c2ccc(OC(C)=O)cc2)C1(C#N)C#N | active: 22.4 µM | –
COc1ccc(OCC(=O)Nc2cc(OC)cc(OC)c2)cc1 | inconclusive: 1.12 µM [inhibitor, full curve] | –
Cc1cc(NC(=O)Nc2ccc(OCc3ccccc3)cc2)n(C)n1 | inconclusive: 10 µM [inhibitor, partial curve] | –
COc1ccc(C(=O)NCCc2nnc3ccc(SCC(=O)N4CCCC4)nn23)cc1 | – | inactive: 16.9%
Cc1cc(C)nc(SCC(=O)c2ccc(F)cc2)n1 | – | inactive: -9.04%
COC(=O)Nc1ccc(S(=O)(=O)N2CCCCC2C(=O)NCc2ccco2)cc1 (stereo unspecified) | inconclusive: 5.62 µM [inhibitor, partial curve] | –
COc1ccc(-c2nc(CN(CC3CCC(=O)N3)C(C)C)c(C)o2)c(C)c1C (stereo unspecified) | inconclusive: 7.94 µM [inhibitor, partial curve, poor fit] | –
CC(=O)Nc1ccc(Nc2cc(C)nc3c(-c4ccc(Cl)cc4)cnn23)cc1 | inconclusive: 5.62 µM [inhibitor, partial curve] | –
CCCCC(=O)N(CCOC)c1nnc(-c2ccccc2C)s1 | active: 1.78 µM | –
Cc1cc2oc(C(=O)NCc3ccc4c(c3)OCO4)c(C)c2cc1C | inconclusive: 25.1 µM [inhibitor, single point] | –
CC(NC(=O)CN(C)CC(=O)Nc1ccc(Cl)cc1)c1ccc(F)cc1 (stereo unspecified) | inconclusive: 10 µM [inhibitor, partial curve] | –
O=C(/C=C/c1cccnc1)c1ccc([N+](=O)[O-])cc1 | – | inactive: 19.8%
Cc1ccc(NC(=O)CCCOc2ccccc2)cc1S(=O)(=O)N1CCOCC1 | inconclusive: 7.94 µM [inhibitor, partial curve] | –
CC(C)n1c(CN(C)c2ccccc2)nc2ccccc21 | inconclusive: 25.1 µM [inhibitor, single point] | –
CC(C)n1c(=N)c(C(=O)NCCc2ccccc2)cc2c(=O)n3ccccc3nc21 | inconclusive: 31.6 µM [inhibitor, single point] | –
CN(Cc1cccnc1)C(=O)c1cc(COc2ccc3ncccc3c2)on1 | active: 3.98 µM | –
Cc1cc(C)cc(N(CC(=O)N/N=C/c2ccncc2)S(=O)(=O)c2ccccc2)c1 | inconclusive: 11.2 µM [inhibitor, partial curve] | –
CC1=C(C)/C(=N/OC(=O)c2cccc([N+](=O)[O-])c2)C=CC1=O | active: 7.08 µM | –
Cc1cc(C)nc(SCC(=O)Nc2ccc(S(=O)(=O)N3CCCCC3)cc2)n1 | inconclusive: 10 µM [inhibitor, partial curve] | –
